Source: publication PMC10141620 (Viruses, 2023)

Experiments:
[1] = system: SARS-CoV-2 Omicron (BA.4/BA.5) pseudovirus; test: organism not typed; type: cell-based; details: mean ± SD (n = 3)
[2] = system: SARS-CoV-2 Omicron (B.1.1.529/BA.1) pseudovirus; test: organism not typed; type: cell-based; details: mean ± SD (n = 3)
[3] = system: SARS-CoV-2 Delta (B.1.617.2) pseudovirus; test: organism not typed; type: cell-based; details: mean ± SD (n = 3)
Caco-2 cells = details: 10 µM, 2 hours, pH 7.4/7.4
[4] = 293T/ACE2 cells, read-out: SARS-CoV-2 IC50, Omicron (BA.4/BA.5)
[5] = A549/ACE2/TMPRSS2 cells, read-out: SARS-CoV-2 IC50, Omicron (BA.4/BA.5)
[6] = Calu-3 cells, read-out: SARS-CoV-2 Omicron BA.4/BA.5 IC50

Cc1cc(C)c2nc3s/c(=C\c4ccc(-c5ccc(Cl)c(C(=O)O)c5)o4)c(=O)n3c2c1 [NBCoV37]
IC50 [1, 4]: 82 ± 8 nM | IC50 [1, 5]: 215 ± 10 nM | IC50 [1, 6]: 583 ± 35 nM | IC50 ([2]; 293T/ACE2 cells): 135 ± 3 nM | IC50 ([2]; A549/ACE2/TMPRSS2 cells): 42.5 ± 1 nM | IC50 ([3]; 293T/ACE2 cells): 267 ± 23 nM | IC50 ([3]; A549/ACE2/TMPRSS2 cells): 130 ± 35 nM

Cc1ccc2nc3s/c(=C/c4coc(-c5ccc(Cl)c(C(=O)O)c5)c4)c(=O)n3c2c1 [NBCoV35]
IC50 [1, 4]: 94 ± 6 nM | IC50 [1, 5]: 170 ± 13 nM | IC50 [1, 6]: 520 ± 27 nM | IC50 ([2]; 293T/ACE2 cells): 173 ± 30 nM | IC50 ([2]; A549/ACE2/TMPRSS2 cells): 201 ± 38 nM | IC50 ([3]; 293T/ACE2 cells): 335 ± 5 nM | IC50 ([3]; A549/ACE2/TMPRSS2 cells): 236 ± 6 nM

Cc1cc2nc3s/c(=C/c4ccc(-c5cccc(C(=O)O)c5)o4)c(=O)n3c2cc1C [NBCoV63]
IC50 [1, 4]: 34 ± 1 nM | IC50 [1, 5]: 26 ± 0.5 nM | IC50 [1, 6]: 126 ± 5 nM | IC50 ([2]; 293T/ACE2 cells): 96 ± 11 nM | IC50 ([2]; A549/ACE2/TMPRSS2 cells): 60 ± 3 nM | Caco-2 permeability (mean Papp) A-to-B (Caco-2 cells): low | Caco-2 permeability (mean Papp) B-to-A (Caco-2 cells): low | IC50 ([3]; 293T/ACE2 cells): 84 ± 0.5 nM | IC50 ([3]; A549/ACE2/TMPRSS2 cells): 105 ± 1 nM | Metabolic stability (human liver microsomes) Clint: low-clearance compound

O=C(O)c1cc(-c2ccc(/C=c3\sc4nc(=O)c5c6c(sc5n4c3=O)CCCC6)o2)ccc1Cl [NBCoV36]
IC50 [1, 4]: 181 ± 12 nM | IC50 [1, 5]: 310 ± 21 nM | IC50 [1, 6]: 565 ± 79 nM | IC50 ([2]; 293T/ACE2 cells): 368 ± 90 nM | IC50 ([2]; A549/ACE2/TMPRSS2 cells): 129 ± 2 nM | IC50 ([3]; 293T/ACE2 cells): 802 ± 143 nM | IC50 ([3]; A549/ACE2/TMPRSS2 cells): 332 ± 26 nM

Read-outs that look alike come from different tables or passages of the source.
